# Test results taken from PMC7819943, “Rice protein-binding microarrays: a tool to detect cis-acting elements near promoter regions in rice”.
# The list shows a part of the results.
# Biological target: T1, OsWOX13 (Oryza sativa, UniProt Q5QMM3 1-267)
# T1 sequence: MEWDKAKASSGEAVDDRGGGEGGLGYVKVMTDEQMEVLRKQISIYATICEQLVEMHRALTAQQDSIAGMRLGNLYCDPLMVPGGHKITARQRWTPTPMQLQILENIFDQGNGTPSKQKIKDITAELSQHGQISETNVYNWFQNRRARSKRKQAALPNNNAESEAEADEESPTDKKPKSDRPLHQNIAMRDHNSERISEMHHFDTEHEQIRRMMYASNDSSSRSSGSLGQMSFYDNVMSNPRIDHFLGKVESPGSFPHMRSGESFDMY
# Assay: protein-binding microarray (RPBM); PBS, 2% BSA, 51.3 ng/ul salmon testes DNA, 50 uM zinc acetate, 200 nM TF, 25 C, 1 h; high values mean tight binding
# Conditions: protein: recombinant; tags: N-terminal polyhistidine and DsRed monomer fusion (pET32a); label: CyDye5-dUTP incorporated in the synthesized complementary strand; 3' TTTTT single-stranded linker to array surface; dsDNA, one strand shown
# Summary of the method: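 Per-feature fluorescence intensity (arbitrary units), read on an Axon 4000B scanner, is the binding signal. Transcription factors carrying an N-terminal polyhistidine tag and DsRed fusion were expressed in E. coli BL21-CodonPlus and purified on Ni–NTA. A custom Agilent array, made double-stranded by primer extension with Cy5-dUTP and blocked with 2% BSA, was incubated with 200 nM protein in PBS, 2% BSA, salmon testes DNA and 50 µM zinc acetate at 25 °C for 1 h and then washed.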
row,Sequence,binding signal
1,CATGACTGTCTGTTTGAATTCCAAACACATACGTAATACACGGAGTCACCTAGTGCAG,7910 fluorescence intensity (a.u.)
2,AGCGATTAGTAAGTGGATTGGATCTAACTAAGCTTGCTACCGGAGTCACCTAGTGCAG,9310 fluorescence intensity (a.u.)
3,CATGCATGCTTTGATGAGAGTAATTAAGTACGGCAAGCATCGGAGTCACCTAGTGCAG,3200 fluorescence intensity (a.u.)
4,TGTAGTGATTTACTTCTTTTCAATATGCCTTCGTTTAATTCGGAGTCACCTAGTGCAG,4790 fluorescence intensity (a.u.)
5,CACTAAGTACTGTAATTAATTATCACCACCATCAAATCATCGGAGTCACCTAGTGCAG,17300 fluorescence intensity (a.u.)
6,GTGGAAATCATTTCCATATCAATTAGCCAAACAGGGCCTGCGGAGTCACCTAGTGCAG,17100 fluorescence intensity (a.u.)
7,ATTATAATTAACTCGGCAATTTGGTTCGACGACGTGATGACGGAGTCACCTAGTGCAG,23200 fluorescence intensity (a.u.)
8,GTCTTGTATTCAAATTTATTATAATTTAGCCGTAACAAAACGGAGTCACCTAGTGCAG,4850 fluorescence intensity (a.u.)
9,ATTGATCAGTGATCTAGTAACTGACATTTCTATTCAATATCGGAGTCACCTAGTGCAG,3840 fluorescence intensity (a.u.)
10,AATTTGAATTTTGTTAAGTTAAATTTGATGAACTGGGGCCCGGAGTCACCTAGTGCAG,5490 fluorescence intensity (a.u.)
11,GTTCGGTAGATTAGCGTGTCATTAGTGTGCTAATTGGAGTCGGAGTCACCTAGTGCAG,9880 fluorescence intensity (a.u.)
12,AGAATTATGATGAAAATGATTGAATCGCTCAATTTCGGAACGGAGTCACCTAGTGCAG,24400 fluorescence intensity (a.u.)
13,TAAACTCGTCTTATCCGCATGATTGTTGACTATAGTATGTCGGAGTCACCTAGTGCAG,3880 fluorescence intensity (a.u.)
14,CATATGTACAAATTAAATTTGTTCTACCCATTGCAACACACGGAGTCACCTAGTGCAG,10300 fluorescence intensity (a.u.)
15,AGATTGACAGACACATTTGGAAGTGTTTCCCTGGCCTCACCGGAGTCACCTAGTGCAG,39200 fluorescence intensity (a.u.)
16,TTCGCACAATCATCAATTTAAGACCTCAAGTTTACAGAAACGGAGTCACCTAGTGCAG,5220 fluorescence intensity (a.u.)
17,GGTCGATGATGATGATGACGACGACGAGAGGAGGAGAGATCGGAGTCACCTAGTGCAG,3300 fluorescence intensity (a.u.)
18,GGATTAAATTATCAAATAGATTTGGCTGCCATGATGGCACCGGAGTCACCTAGTGCAG,42600 fluorescence intensity (a.u.)
19,TTCTATAATGCAATTCAATTGATTATAAAGCAACTGAAAACGGAGTCACCTAGTGCAG,5080 fluorescence intensity (a.u.)
20,AGTGATAGTAACATTGTTTACACAAATTACATATCTATGTCGGAGTCACCTAGTGCAG,3500 fluorescence intensity (a.u.)
21,CTAAATTAATCCATATACGATTTACTGTATTTTCCTCTCACGGAGTCACCTAGTGCAG,18000 fluorescence intensity (a.u.)
22,GCCTAATTAAAGCCCACATACTGAACTGGGCCGGCCCACTCGGAGTCACCTAGTGCAG,3560 fluorescence intensity (a.u.)
23,TAGTTTTGTAAATGATTGAAATTTTCTAGTGTTAAATAGGCGGAGTCACCTAGTGCAG,34800 fluorescence intensity (a.u.)
24,ACGTTCAAATTGCTCTAATCAGACGAAAACTTAATCATGTCGGAGTCACCTAGTGCAG,7310 fluorescence intensity (a.u.)
25,TTGCCAAATTTTGATATGATATCTTATGTATTTATCAGAGCGGAGTCACCTAGTGCAG,4410 fluorescence intensity (a.u.)
26,CTAATGACGAGATTAATTAGGCTTAATAAATTCGTCTCGCCGGAGTCACCTAGTGCAG,54800 fluorescence intensity (a.u.)
27,CAATTAATGGACTCCAATTAACCTAACCATTTCTACACTGCGGAGTCACCTAGTGCAG,26500 fluorescence intensity (a.u.)

row,Sequence,binding signal
1,CTCAATGAGTTCTTAATTAGTAATCAGATGGTCAATACACCGGAGTCACCTAGTGCAG,11500 fluorescence intensity (a.u.)
2,CCGGGAATCAATTTACTTATGATAGGGACAATAAGATATTCGGAGTCACCTAGTGCAG,11200 fluorescence intensity (a.u.)
3,TTAAATTAGCGTCCAAACATTCGATGTGACATGGACTAAGCGGAGTCACCTAGTGCAG,18100 fluorescence intensity (a.u.)
4,CAATTTAAATGACAATTAATCTTTAGTATATATTCTTGTTCGGAGTCACCTAGTGCAG,22700 fluorescence intensity (a.u.)
5,AGCCAATTTGATTGCTTGCAAAATTGTGCCAAATTTTCAGCGGAGTCACCTAGTGCAG,40900 fluorescence intensity (a.u.)
6,CCCACATTGACTGACTGATCGACCAGGCTGTTTACCTTCGCGGAGTCACCTAGTGCAG,30100 fluorescence intensity (a.u.)
7,CAAACAAATAAAATTGACGTCAAGAAAATAAAGTTATGGTCGGAGTCACCTAGTGCAG,16800 fluorescence intensity (a.u.)
8,TATAATTTGGTGGGCGCACCACTAACGTGTATATTTAGTGCGGAGTCACCTAGTGCAG,4700 fluorescence intensity (a.u.)
9,AATAAATTTGTCCCGCACTTTACAGGCGGATTACGTAATTCGGAGTCACCTAGTGCAG,10500 fluorescence intensity (a.u.)
10,TATCAGTTATTTGATGAATCAGACTAACAAATCGTTAAGCCGGAGTCACCTAGTGCAG,5220 fluorescence intensity (a.u.)
11,CGAATTTCTGATTAAGATTCTTTCCTGACATGCGGGCCCACGGAGTCACCTAGTGCAG,3600 fluorescence intensity (a.u.)
12,TATTAATTTCTTTGTAACGCCTACAGTGTACTCTTCGCTTCGGAGTCACCTAGTGCAG,14500 fluorescence intensity (a.u.)
13,TAATCATAAACTAATTAGACTCAAAAGATTCCTCTCGCGACGGAGTCACCTAGTGCAG,16600 fluorescence intensity (a.u.)
14,AGTGCAAATTATATCTCATCATCTTAATTCATTCAAGATCCGGAGTCACCTAGTGCAG,13400 fluorescence intensity (a.u.)
15,CGTATAATTGCAGGTTGGCTCTTAGTTTAAAATCGTTCGACGGAGTCACCTAGTGCAG,12100 fluorescence intensity (a.u.)
16,GGAAAACGTGGTAAACTGGTGATTGAATCTAAAAGTAGCACGGAGTCACCTAGTGCAG,18900 fluorescence intensity (a.u.)
17,GTTCTAATTTTAGAAAATTACAATGGCATTAACTCGATTTCGGAGTCACCTAGTGCAG,22400 fluorescence intensity (a.u.)
18,TTGCAAAGGTAATTAATCAAGCACACACGCATTAAGGCATCGGAGTCACCTAGTGCAG,4460 fluorescence intensity (a.u.)
19,ATACAAGATTGTTGTCGAATTAGTTAACGGTGTGGTTTTACGGAGTCACCTAGTGCAG,3860 fluorescence intensity (a.u.)
20,GTGATTGGGCTTCAGCTCCACCAAGCGGCTGGCCCCATCTCGGAGTCACCTAGTGCAG,7830 fluorescence intensity (a.u.)
21,ACTGATTTATATGGCTTCTTCATCTTTGTTGTAGTCCCGACGGAGTCACCTAGTGCAG,41200 fluorescence intensity (a.u.)
22,CAACCATCAAGGCATCAATTAAACTAAACGAAGGTACACGCGGAGTCACCTAGTGCAG,5960 fluorescence intensity (a.u.)
23,AAGTTATTAGCATATGATTAATCGAATATGAATTATTGTACGGAGTCACCTAGTGCAG,3900 fluorescence intensity (a.u.)
24,TCAAGATTGCTAACTAGATGTCATGGCGTGCTGGAGATAACGGAGTCACCTAGTGCAG,4250 fluorescence intensity (a.u.)
25,TTTTGAAATTTCAGATTATTTTGTGTGGTTTTGTAATTTGCGGAGTCACCTAGTGCAG,4570 fluorescence intensity (a.u.)
26,GCTTATAGATTGTAATAATCCATCATAATAAACTATCTATCGGAGTCACCTAGTGCAG,16300 fluorescence intensity (a.u.)
27,AATAAATAAATCACTTTACCTGGAGTAATGATGATATTTTCGGAGTCACCTAGTGCAG,4430 fluorescence intensity (a.u.)
